From publication PMC9590400
These are yes or no findings as the source states them, for the method shown. For some of these results: Binding seen in cells or lysates may run through a third protein. Some results given as binding are weak or reduced against the parent protein; the word gives no strength. For some of these results: Tags and fused reporters may be left off the sequences shown.

Protein sequences, listed by entry. Tags and fused reporters are not part of them. Lines headed by an entry give the natural chain unless they say otherwise; changes in a name come on top.
UniProt Q9P209: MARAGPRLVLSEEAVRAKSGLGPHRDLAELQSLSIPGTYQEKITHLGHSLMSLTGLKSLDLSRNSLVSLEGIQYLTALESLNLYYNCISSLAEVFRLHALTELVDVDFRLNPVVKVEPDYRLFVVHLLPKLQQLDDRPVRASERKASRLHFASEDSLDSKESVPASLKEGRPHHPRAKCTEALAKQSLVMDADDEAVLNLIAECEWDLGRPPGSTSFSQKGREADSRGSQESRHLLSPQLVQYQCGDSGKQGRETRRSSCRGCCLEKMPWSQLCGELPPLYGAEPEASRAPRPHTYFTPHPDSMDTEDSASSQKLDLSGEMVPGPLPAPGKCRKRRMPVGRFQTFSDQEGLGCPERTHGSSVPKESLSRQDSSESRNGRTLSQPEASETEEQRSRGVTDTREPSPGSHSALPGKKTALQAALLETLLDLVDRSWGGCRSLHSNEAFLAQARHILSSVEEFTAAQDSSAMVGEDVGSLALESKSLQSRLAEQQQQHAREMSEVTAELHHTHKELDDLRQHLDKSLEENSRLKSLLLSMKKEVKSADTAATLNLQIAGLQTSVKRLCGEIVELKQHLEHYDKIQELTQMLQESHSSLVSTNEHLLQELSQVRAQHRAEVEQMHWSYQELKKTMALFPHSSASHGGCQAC
UniProt Q14980: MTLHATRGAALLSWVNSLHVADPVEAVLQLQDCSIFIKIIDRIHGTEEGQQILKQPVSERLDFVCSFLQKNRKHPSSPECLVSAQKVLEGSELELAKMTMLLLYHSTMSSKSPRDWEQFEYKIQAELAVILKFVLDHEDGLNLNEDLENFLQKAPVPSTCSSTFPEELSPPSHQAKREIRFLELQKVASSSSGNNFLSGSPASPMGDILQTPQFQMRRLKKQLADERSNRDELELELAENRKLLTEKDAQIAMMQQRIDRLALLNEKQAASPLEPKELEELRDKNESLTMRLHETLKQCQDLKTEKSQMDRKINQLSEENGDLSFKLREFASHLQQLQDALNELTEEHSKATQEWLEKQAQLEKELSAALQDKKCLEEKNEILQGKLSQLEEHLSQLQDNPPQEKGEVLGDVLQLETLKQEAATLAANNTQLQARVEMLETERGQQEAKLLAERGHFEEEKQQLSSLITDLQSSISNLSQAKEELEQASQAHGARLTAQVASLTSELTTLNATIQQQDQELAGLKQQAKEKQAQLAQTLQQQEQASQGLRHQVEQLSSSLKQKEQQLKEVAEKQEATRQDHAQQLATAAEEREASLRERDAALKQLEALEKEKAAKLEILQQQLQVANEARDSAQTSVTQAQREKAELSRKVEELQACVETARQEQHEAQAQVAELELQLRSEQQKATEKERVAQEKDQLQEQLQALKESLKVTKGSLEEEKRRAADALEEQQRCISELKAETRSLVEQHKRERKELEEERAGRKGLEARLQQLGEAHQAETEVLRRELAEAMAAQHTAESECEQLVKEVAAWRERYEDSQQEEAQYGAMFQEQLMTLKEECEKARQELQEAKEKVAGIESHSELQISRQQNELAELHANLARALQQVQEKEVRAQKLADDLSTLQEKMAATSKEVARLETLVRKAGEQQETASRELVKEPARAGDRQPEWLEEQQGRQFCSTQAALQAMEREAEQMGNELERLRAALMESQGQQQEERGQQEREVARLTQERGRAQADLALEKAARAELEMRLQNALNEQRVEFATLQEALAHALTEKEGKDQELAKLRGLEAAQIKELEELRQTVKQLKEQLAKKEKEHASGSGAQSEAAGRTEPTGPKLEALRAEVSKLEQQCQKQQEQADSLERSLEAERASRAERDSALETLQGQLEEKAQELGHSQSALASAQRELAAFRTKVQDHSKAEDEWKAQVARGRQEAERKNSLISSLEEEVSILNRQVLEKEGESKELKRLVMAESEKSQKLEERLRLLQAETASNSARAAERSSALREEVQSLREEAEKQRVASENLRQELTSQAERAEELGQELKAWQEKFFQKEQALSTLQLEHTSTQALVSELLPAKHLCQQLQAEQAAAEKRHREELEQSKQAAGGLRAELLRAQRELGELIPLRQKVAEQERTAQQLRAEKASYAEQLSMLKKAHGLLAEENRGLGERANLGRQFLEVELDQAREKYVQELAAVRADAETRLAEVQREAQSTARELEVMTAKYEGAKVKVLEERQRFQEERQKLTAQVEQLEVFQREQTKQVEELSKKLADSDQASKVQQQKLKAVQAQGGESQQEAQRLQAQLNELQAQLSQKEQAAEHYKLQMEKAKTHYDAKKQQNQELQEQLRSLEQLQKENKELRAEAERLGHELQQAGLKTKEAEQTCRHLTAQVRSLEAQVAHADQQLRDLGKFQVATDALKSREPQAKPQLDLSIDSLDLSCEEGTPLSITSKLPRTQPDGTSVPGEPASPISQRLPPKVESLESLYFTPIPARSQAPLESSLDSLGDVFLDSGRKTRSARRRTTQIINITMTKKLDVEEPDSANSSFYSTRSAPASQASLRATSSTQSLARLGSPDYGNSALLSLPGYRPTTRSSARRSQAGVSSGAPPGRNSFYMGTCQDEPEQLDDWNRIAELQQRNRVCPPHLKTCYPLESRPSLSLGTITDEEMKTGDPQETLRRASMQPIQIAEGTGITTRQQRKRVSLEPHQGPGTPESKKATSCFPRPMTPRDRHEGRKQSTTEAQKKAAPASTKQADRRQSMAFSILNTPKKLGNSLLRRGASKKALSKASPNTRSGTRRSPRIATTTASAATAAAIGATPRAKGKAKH
UniProt Q15154: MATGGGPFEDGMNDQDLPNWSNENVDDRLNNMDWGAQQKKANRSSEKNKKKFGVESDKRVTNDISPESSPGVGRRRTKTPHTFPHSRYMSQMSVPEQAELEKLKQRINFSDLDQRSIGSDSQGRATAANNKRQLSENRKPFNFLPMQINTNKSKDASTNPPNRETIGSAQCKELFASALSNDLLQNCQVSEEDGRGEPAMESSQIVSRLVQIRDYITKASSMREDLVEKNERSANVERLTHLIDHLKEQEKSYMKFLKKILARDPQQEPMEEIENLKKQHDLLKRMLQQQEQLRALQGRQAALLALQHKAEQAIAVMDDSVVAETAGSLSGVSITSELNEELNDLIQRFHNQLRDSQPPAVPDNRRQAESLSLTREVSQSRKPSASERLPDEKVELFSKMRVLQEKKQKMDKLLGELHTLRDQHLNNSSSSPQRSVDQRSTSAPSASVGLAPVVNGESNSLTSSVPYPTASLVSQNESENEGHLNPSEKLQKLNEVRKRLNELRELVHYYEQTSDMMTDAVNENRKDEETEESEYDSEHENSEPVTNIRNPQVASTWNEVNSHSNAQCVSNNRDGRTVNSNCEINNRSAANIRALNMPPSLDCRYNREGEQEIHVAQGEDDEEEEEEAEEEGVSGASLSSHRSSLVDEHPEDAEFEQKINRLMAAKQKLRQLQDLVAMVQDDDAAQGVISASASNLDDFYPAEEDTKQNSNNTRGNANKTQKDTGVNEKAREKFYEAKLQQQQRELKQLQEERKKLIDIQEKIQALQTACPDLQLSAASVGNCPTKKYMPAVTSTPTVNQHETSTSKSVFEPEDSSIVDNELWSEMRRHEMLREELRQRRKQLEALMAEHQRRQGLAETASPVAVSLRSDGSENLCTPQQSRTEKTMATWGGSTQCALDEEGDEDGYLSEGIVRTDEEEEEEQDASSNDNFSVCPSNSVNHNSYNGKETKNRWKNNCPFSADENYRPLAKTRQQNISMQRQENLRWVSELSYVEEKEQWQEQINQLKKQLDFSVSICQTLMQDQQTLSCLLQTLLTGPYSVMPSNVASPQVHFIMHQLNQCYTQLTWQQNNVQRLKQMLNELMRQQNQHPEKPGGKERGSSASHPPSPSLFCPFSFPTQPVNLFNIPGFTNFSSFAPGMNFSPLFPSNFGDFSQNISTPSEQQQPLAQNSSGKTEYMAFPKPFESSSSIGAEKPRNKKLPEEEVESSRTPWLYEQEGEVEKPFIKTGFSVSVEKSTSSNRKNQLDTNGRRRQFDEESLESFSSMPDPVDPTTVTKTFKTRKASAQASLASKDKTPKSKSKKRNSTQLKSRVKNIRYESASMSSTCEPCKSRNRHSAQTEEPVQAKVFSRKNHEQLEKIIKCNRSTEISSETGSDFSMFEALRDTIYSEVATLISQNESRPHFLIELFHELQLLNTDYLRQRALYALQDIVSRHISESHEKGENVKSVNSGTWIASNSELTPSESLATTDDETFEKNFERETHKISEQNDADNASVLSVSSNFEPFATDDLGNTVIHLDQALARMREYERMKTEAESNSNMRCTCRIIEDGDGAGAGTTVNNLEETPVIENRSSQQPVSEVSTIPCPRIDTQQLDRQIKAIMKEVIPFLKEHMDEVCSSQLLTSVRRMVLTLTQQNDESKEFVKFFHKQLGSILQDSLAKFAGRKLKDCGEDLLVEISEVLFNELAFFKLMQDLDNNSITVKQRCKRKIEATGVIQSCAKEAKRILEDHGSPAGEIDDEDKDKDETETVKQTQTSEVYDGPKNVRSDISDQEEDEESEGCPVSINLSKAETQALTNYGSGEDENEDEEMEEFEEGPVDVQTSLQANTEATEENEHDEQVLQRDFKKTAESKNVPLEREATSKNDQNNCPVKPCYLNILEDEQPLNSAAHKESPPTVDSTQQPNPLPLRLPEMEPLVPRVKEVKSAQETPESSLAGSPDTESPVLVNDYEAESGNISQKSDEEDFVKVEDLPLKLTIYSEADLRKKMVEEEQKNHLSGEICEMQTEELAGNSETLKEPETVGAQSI

T1: GFP-tagged HCR coiled-coil 3 fragment (aa 441-782) expressed in HeLa cells (human) (UniProt Q8TD31)
T1 sequence: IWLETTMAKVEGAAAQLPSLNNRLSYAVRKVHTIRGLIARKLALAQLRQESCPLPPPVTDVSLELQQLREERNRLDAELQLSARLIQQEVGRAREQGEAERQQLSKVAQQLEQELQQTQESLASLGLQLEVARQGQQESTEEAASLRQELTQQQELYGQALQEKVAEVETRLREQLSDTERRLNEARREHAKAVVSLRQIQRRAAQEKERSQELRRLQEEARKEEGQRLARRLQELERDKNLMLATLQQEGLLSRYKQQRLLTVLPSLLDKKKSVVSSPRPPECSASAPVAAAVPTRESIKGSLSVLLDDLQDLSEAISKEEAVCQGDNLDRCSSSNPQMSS

T2: astrin (sperm-associated antigen 5), endogenous in HeLa (human (endogenous in HeLa)) (UniProt Q96R06)
T2 sequence: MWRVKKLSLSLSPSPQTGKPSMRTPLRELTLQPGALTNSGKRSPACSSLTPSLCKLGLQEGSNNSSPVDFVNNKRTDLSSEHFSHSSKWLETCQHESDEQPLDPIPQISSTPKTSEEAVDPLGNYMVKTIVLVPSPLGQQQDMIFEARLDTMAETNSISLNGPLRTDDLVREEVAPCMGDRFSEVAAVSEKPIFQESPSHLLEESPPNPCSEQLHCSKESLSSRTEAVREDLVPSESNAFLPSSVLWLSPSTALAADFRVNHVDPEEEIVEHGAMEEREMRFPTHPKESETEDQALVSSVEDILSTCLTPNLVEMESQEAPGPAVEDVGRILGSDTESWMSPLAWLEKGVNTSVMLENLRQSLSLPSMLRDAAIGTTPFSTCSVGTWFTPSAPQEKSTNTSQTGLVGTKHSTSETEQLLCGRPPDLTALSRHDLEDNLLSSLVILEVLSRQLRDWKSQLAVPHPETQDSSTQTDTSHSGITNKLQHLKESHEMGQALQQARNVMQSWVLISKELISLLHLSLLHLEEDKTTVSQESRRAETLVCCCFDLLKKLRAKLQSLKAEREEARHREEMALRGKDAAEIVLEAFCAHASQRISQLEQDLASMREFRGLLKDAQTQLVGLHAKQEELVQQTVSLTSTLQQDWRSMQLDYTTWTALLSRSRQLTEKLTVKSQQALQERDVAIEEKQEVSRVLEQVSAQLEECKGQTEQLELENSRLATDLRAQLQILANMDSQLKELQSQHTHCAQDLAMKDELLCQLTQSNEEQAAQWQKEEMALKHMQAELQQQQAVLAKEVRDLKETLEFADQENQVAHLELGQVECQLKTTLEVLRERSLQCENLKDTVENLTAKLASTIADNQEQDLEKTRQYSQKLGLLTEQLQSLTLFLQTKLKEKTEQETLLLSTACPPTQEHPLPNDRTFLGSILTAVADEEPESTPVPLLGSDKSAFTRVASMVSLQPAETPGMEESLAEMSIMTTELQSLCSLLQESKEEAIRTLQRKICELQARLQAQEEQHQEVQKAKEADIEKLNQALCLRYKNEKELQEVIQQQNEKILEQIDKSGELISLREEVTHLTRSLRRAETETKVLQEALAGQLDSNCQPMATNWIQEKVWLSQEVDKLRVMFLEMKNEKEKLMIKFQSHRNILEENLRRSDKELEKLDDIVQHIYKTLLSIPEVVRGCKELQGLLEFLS

T3: Coiled-coil alpha-helical rod protein 1 (HCR), endogenous in HeLa (human (endogenous in HeLa)) (UniProt Q8TD31)
T3 sequence: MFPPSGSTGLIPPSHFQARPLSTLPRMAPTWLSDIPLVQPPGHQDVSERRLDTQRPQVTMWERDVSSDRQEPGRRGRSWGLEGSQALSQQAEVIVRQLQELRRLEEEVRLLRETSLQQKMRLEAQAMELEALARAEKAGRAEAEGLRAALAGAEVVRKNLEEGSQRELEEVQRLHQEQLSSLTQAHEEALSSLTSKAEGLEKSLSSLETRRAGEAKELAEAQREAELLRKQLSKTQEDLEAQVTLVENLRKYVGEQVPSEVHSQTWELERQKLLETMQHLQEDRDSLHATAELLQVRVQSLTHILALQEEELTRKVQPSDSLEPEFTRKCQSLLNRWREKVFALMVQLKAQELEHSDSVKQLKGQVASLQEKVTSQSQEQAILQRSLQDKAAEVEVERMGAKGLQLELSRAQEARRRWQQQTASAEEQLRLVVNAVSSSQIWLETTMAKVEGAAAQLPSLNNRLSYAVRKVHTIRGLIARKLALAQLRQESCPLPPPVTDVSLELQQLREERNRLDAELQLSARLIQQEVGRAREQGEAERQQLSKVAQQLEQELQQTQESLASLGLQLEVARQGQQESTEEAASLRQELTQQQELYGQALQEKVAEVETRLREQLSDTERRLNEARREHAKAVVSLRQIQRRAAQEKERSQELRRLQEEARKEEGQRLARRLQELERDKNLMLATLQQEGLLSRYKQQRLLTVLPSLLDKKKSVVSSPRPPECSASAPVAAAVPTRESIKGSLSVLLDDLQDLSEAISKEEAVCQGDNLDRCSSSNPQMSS

T4: HCR-mCherry expressed in HeLa cells (human) (UniProt Q8TD31)
T4 sequence: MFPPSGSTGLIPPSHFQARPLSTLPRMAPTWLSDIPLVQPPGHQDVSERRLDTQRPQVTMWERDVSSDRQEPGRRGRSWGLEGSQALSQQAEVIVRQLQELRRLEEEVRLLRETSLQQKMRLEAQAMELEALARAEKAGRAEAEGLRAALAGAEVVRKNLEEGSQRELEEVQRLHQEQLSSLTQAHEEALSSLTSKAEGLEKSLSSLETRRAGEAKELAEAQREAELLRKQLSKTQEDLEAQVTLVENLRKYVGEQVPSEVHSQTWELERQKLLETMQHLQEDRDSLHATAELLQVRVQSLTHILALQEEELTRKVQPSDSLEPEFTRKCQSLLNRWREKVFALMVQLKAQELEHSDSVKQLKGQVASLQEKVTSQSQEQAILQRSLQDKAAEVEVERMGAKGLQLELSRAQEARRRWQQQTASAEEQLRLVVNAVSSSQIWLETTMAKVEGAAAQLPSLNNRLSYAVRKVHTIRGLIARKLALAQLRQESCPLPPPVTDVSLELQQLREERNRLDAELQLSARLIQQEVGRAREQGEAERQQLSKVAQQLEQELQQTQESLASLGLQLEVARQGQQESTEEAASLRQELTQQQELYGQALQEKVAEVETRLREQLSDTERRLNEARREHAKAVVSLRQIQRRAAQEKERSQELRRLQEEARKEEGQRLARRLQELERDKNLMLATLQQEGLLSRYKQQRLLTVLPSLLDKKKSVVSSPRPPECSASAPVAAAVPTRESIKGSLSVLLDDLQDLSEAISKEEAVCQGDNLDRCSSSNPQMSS


Key:
[1] = molecular target: T1, GFP-tagged HCR coiled-coil 3 fragment (aa 441-782) expressed in HeLa cells (human); experiment: co-IP; HeLa cells transfected with one tagged HCR construct (GFP-HCR-CC3 or HCR-mCherry); precipitated by the tag's antibody; endogenous partner detected by western blot
[2] = molecular target: T2, astrin (sperm-associated antigen 5), endogenous in HeLa (human (endogenous in HeLa)); experiment: co-IP; endogenous proteins in HeLa cell lysates (50 mM Tris, 150 mM NaCl, 0.1% NP40); antibody to one partner or control rabbit IgG, protein A and protein G beads, 4 °C; western blot
[3] = molecular target: T3, Coiled-coil alpha-helical rod protein 1 (HCR), endogenous in HeLa (human (endogenous in HeLa)); experiment: as above
[4] = molecular target: T4, HCR-mCherry expressed in HeLa cells (human); experiment: co-IP; HeLa cells transfected with one tagged HCR construct (GFP-HCR-CC3 or HCR-mCherry); precipitated by the tag's antibody; endogenous partner detected by western blot
[5] = molecular target: GST-tagged CEP72 purified from E. coli (UniProt Q9P209); experiment: pull-down; GST-tagged protein and His-tagged HCR fragments, both purified from E. coli BL21(DE3); GST pull-down in vitro; both purified

Row | Molecule | binding [1] | binding [2] | binding [3] | binding [4] | binding [5]
1 | CEP72, endogenous in HeLa (from UniProt Q9P209-1 1-647) | binds | binds | binds |  | 
2 | NuMA, endogenous in HeLa (from UniProt Q14980 1-2115) |  |  |  | binds | 
3 | pericentriolar material 1 (PCM1), endogenous in HeLa (from UniProt Q15154 1-2024) |  | binds | binds |  | 
4 | His-tagged HCR third coiled-coil region purified from E. coli (domain or fragment, UniProt Q8TD31-1 441-782) IWLETTMAKVEGAAAQLPSLNNRLSYAVRKVHTIRGLIARKLALAQLRQESCPLPPPVTDVSLELQQLREERNRLDAELQLSARLIQQEVGRAREQGEAERQQLSKVAQQLEQELQQTQESLASLGLQLEVARQGQQESTEEAASLRQELTQQQELYGQALQEKVAEVETRLREQLSDTERRLNEARREHAKAVVSLRQIQRRAAQEKERSQELRRLQEEARKEEGQRLARRLQELERDKNLMLATLQQEGLLSRYKQQRLLTVLPSLLDKKKSVVSSPRPPECSASAPVAAAVPTRESIKGSLSVLLDDLQDLSEAISKEEAVCQGDNLDRCSSSNPQMSS |  |  |  |  | binds
